# According to publication PMC3424240:
# Amino acid sequences for entries named in this document (tags omitted).
# UniProt Q9UPS6: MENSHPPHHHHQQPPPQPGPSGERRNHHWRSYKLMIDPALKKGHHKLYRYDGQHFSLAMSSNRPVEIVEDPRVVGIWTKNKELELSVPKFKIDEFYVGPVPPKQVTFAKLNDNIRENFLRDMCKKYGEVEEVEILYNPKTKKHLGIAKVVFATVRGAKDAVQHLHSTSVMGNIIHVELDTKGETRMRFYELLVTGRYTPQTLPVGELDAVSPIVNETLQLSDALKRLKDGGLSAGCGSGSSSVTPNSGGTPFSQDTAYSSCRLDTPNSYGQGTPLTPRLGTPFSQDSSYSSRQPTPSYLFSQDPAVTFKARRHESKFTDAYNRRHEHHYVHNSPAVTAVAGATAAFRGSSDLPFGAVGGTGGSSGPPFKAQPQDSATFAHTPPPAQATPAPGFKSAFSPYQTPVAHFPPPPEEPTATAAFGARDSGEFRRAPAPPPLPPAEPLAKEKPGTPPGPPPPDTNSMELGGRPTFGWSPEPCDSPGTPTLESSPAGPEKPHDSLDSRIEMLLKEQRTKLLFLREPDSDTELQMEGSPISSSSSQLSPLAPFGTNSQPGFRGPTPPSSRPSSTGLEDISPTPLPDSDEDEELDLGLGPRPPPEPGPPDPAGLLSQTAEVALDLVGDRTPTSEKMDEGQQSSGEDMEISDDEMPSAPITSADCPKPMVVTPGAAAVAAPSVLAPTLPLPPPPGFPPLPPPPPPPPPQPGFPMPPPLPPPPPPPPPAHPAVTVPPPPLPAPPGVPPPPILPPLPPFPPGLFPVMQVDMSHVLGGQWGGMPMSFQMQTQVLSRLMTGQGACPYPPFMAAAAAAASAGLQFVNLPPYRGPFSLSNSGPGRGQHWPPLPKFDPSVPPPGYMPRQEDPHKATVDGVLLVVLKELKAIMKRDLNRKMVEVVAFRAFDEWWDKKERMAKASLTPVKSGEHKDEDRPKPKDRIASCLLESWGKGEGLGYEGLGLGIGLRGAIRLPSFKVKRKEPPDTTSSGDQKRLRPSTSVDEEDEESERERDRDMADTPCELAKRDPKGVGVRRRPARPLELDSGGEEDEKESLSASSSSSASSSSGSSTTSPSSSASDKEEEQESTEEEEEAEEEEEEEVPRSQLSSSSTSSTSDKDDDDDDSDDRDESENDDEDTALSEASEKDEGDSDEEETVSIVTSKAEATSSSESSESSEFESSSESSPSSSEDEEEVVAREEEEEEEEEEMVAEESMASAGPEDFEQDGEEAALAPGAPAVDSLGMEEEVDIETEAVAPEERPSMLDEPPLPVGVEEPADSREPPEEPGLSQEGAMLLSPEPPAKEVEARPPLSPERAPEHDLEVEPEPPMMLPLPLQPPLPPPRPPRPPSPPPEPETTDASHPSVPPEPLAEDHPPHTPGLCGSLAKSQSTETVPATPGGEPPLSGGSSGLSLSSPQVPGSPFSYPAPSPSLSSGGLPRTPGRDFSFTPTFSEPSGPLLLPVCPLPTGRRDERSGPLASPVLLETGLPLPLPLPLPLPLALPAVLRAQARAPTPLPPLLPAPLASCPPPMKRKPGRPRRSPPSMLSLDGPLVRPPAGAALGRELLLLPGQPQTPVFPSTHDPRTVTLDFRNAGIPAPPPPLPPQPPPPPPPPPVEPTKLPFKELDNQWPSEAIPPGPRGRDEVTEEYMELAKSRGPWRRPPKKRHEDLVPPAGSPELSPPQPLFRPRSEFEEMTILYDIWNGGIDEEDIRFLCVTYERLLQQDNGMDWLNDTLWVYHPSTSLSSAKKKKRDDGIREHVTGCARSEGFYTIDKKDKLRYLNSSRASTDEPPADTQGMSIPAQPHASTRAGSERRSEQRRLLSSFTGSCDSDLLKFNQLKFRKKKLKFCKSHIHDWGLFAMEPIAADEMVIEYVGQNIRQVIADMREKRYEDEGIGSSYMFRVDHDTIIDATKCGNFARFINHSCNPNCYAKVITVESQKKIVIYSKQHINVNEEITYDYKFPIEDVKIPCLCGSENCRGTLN
# UniProt Q8CFT2: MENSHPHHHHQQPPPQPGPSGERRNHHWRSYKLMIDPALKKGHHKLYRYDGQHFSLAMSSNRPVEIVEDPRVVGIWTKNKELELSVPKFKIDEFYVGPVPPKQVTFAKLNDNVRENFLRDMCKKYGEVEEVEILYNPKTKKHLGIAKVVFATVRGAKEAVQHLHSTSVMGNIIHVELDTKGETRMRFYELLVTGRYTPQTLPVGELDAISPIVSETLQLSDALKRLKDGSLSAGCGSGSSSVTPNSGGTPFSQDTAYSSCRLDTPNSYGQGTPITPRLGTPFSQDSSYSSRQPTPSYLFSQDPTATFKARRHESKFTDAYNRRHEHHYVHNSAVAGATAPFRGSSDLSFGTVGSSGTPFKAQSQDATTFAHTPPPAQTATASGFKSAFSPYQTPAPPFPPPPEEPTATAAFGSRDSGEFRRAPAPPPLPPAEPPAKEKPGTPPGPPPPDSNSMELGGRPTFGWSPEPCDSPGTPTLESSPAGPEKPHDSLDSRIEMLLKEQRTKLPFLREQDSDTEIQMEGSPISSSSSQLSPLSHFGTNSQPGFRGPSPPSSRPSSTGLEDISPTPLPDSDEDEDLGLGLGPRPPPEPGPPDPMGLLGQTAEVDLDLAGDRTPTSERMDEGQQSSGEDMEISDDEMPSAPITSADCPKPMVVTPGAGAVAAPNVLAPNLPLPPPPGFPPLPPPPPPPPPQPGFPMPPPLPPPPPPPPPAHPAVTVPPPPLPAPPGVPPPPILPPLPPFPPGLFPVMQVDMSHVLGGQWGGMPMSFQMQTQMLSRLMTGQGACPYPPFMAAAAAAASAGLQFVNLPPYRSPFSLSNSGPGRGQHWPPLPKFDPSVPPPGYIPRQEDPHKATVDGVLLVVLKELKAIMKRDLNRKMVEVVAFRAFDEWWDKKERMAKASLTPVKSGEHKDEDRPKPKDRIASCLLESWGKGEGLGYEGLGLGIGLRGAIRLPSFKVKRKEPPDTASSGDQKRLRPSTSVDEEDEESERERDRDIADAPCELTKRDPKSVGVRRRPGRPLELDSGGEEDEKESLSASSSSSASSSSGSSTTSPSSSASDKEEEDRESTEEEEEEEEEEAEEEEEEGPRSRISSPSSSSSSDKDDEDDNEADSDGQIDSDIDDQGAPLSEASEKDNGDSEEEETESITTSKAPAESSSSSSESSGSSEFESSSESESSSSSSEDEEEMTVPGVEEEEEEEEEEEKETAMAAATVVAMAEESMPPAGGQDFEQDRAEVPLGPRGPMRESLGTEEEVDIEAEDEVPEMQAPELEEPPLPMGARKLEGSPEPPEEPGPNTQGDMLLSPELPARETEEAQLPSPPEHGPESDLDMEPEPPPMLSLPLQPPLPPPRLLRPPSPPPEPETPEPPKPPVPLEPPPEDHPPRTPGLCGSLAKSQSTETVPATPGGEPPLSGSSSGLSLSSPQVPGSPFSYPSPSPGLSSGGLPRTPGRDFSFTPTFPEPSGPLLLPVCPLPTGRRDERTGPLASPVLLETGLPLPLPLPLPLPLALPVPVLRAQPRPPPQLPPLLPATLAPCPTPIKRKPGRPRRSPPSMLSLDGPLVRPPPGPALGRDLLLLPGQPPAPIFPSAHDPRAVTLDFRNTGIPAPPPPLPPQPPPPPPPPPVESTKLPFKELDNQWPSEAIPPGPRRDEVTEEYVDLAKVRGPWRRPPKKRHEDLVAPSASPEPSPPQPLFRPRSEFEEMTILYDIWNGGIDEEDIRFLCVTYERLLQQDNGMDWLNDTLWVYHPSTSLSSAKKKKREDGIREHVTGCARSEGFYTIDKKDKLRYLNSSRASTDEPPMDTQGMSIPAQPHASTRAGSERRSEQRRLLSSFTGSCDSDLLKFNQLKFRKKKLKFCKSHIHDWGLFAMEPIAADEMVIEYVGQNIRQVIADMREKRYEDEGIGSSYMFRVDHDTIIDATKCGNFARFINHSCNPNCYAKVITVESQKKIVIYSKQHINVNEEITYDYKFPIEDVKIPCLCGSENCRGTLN
# Results are given in words; binding and its absence hold for the method and conditions named. In cells and extracts the contact can be indirect. Some binding calls cover weakened binding; strength is not graded here. For part of these data: Where a sequence is shown, tags or fusion partners need not be part of it.
# How the values were obtained:
# [1] = target: endogenous Setd1b (human (endogenous in HEK293)) (UniProt Q9UPS6); assay: co-IP; immunoprecipitation with anti-Setd1b antiserum from nuclear extracts of HEK293 cells transiently transfected with Myc-tagged constructs, Western blotting
# [2] = target: Setd1b of murine 6133 megakaryoblastic leukemic cells (mouse (endogenous in 6133)) (UniProt Q8CFT2); assay: co-IP; immunoprecipitation with antisera against Setd1b or Rbm15 from whole cell extracts of murine 6133 megakaryoblastic leukemic cells, Western blotting
binding [1],binding [2],Binder
no binding,,"Myc-Mkl1 (protein, UniProt Q969V6 1-931) MPPLKSPAAFHEQRRSLERARTEDYLKRKIRSRPERSELVRMHILEETSAEPSLQAKQLKLKRARLADDLNEKIAQRPGPMELVEKNILPVESSLKEAIIVGQVNYPKVADSSSFDEDSSDALSPEQPASHESQGSVPSPLEARVSEPLLSATSASPTQVVSQLPMGRDSREMLFLAEQPPLPPPPLLPPSLTNGTTIPTAKSTPTLIKQSQPKSASEKSQRSKKAKELKPKVKKLKYHQYIPPDQKQDRGAPPMDSSYAKILQQQQLFLQLQILNQQQQQHHNYQAILPAPPKSAGEALGSSGTPPVRSLSTTNSSSSSGAPGPCGLARQNSTSLTGKPGALPANLDDMKVAELKQELKLRSLPVSGTKTELIERLRAYQDQISPVPGAPKAPAATSILHKAGEVVVAFPAARLSTGPALVAAGLAPAEVVVATVASSGVVKFGSTGSTPPVSPTPSERSLLSTGDENSTPGDTFGEMVTSPLTQLTLQASPLQILVKEEGPRAGSCCLSPGGRAELEGRDKDQMLQEKDKQIEALTRMLRQKQQLVERLKLQLEQEKRAQQPAPAPAPLGTPVKQENSFSSCQLSQQPLGPAHPFNPSLAAPATNHIDPCAVAPGPPSVVVKQEALQPEPEPVPAPQLLLGPQGPSLIKGVAPPTLITDSTGTHLVLTVTNKNADSPGLSSGSPQQPSSQPGSPAPAPSAQMDLEHPLQPLFGTPTSLLKKEPPGYEEAMSQQPKQQENGSSSQQMDDLFDILIQSGEISADFKEPPSLPGKEKPSPKTVCGSPLAAQPSPSAELPQAAPPPPGSPSLPGRLEDFLESSTGLPLLTSGHDGPEPLSLIDDLHSQMLSSTAILDHPPSPMDTSELHFVPEPSSTMGLDLADGHLDSMDWLELSSGGPVLSLAPLSTTAPSLFSTDFLDGHDLQLHWDSCL"
binds,,"Myc-Rbm15 (protein, UniProt Q96T37 1-977) MRTAGRDPVPRRSPRWRRAVPLCETSAGRRVTQLRGDDLRRPATMKGKERSPVKAKRSRGGEDSTSRGERSKKLGGSGGSNGSSSGKTDSGGGSRRSLHLDKSSSRGGSREYDTGGGSSSSRLHSYSSPSTKNSSGGGESRSSSRGGGGESRSSGAASSAPGGGDGAEYKTLKISELGSQLSDEAVEDGLFHEFKRFGDVSVKISHLSGSGSGDERVAFVNFRRPEDARAAKHARGRLVLYDRPLKIEAVYVSRRRSRSPLDKDTYPPSASVVGASVGGHRHPPGGGGGQRSLSPGGAALGYRDYRLQQLALGRLPPPPPPPLPRDLERERDYPFYERVRPAYSLEPRVGAGAGAAPFREVDEISPEDDQRANRTLFLGNLDITVTESDLRRAFDRFGVITEVDIKRPSRGQTSTYGFLKFENLDMSHRAKLAMSGKIIIRNPIKIGYGKATPTTRLWVGGLGPWVPLAALAREFDRFGTIRTIDYRKGDSWAYIQYESLDAAHAAWTHMRGFPLGGPDRRLRVDFADTEHRYQQQYLQPLPLTHYELVTDAFGHRAPDPLRGARDRTPPLLYRDRDRDLYPDSDWVPPPPPVRERSTRTAATSVPAYEPLDSLDRRRDGWSLDRDRGDRDLPSSRDQPRKRRLPEESGGRHLDRSPESDRPRKRHCAPSPDRSPELSSSRDRYNSDNDRSSRLLLERPSPIRDRRGSLEKSQGDKRDRKNSASAERDRKHRTTAPTEGKSPLKKEDRSDGSAPSTSTASSKLKSPSQKQDGGTAPVASASPKLCLAWQGMLLLKNSNFPSNMHLLQGDLQVASSLLVEGSTGGKVAQLKITQRLRLDQPKLDEVTRRIKVAGPNGYAILLAVPGSSDSRSSSSSAASDTATSTQRPLRNLVSYLKQKQAAGVISLPVGGNKDKENTGVLHAFPPCEFSQQFLDSPAKALAKSEEDYLVMIIVRGFGFQIGVRYENKKRENLALTLL"
,binds,"Rbm15 of murine 6133 megakaryoblastic leukemic cells (protein, UniProt Q0VBL3 1-962) MRSAGREPLPRRSPRWRRASPLCETSAGWRVSQLRRDDLRRPSTMKGKERSPVKPKRSRGGEDSSSRGERSKKLGGSGGSNGSSSGKTDSGGSRRSLHLDKSSSRGGSREYETGGGSSSSRLHSYSSPSTKNSSGGGESRSSSRGGGGESRSSGAASSAPGGGDGVEYKTLKISELGSQLSDEAVEDGLFHEFKRFGDVSVKISHLSGSGSGDERVAFVNFRRPEDARAAKHARGRLVLYDRPLKIEAVYVSRRRSRSPLDKDAYAPSSSVVGTSVGSHRHAPGGGGGQRSLSPGGAALGYRDYRLQQLALGRLPPPPPPPLPRELERERDYPFYDRVRPAYSLEPRVGAGAGAAPFREVDEISPEDDQRANRTLFLGNLDITVTENDLRRAFDRFGVITEVDIKRPSRGQTSTYGFLKFENLDMSHRAKLAMSGKIIIRNPIKIGYGKATPTTRLWVGGLGPWVPLAALAREFDRFGTIRTIDYRKGDSWAYIQYESLDAAHAAWTHMRGFPLGGPDRRLRVDFADTEHRYQQQYLQPLPLTHYELVTDTFGHRAPDPLRSARDRTPPLLYRDRDRDLYTDSDWVPPPPPVRERSARAATSAVTAYEPLDSLDRRRDGWSLDRDRGDRDLPSSRDQPRKRRLPEESGGRHLDRSPESERPRKQRHCTPSPDRSPELSSNRDRYNSDNDRSSRLLLLERSSPVRDRRGSLEKSQSDKRDRKNSASAERDRKHRTAAPTEGKNPLKKEDRSDGNAPSASTSSSKQKPPSQKQDGGTAPVAASSPKLCLAWQGMLLLKNSNFPSNMHLLQGDLQVASSLLVEGSTGGKVAQLKITQRLRLDQPKLDEVTRRIKVAGPNGYAILLAVPGSSDSRSSSSSATSDTAASTQRPLRNLVSYLKQKQAAGVISLPVGGNKDKENTGVLHAFPPCEFSQQFLDSPAKALAKSEEDYLVMIIVRAKLVNSG"
